Source: the supplement of paper PMC4967469
The IC50 comes from the fitted curve, where viability falls to half of the control; fits outside the tested doses are given as limits. AUC sums up the same curve from the lowest dose to the 256-fold higher top dose; values near 1 show little effect. For some assays here: A top dose marked as inferred comes from the curve model; the source does not state it. For some assays here: Where an entry number is given, a second screen of the drug exists; the two often differ.

Assays:
Assay in all cases: Viability of human cancer cell lines after 72 h of drug (GDSC screen)
CUDC-101 = compound: C#Cc1cccc(Nc2ncnc3cc(OC)c(OCCCCCCC(=O)NO)cc23)c1 [CUDC-101]; conditions: top dose 5.12 µM; top dose inferred
Procedure: (§1)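 Human cancer cell lines in 384-well plates, medium with 10% serum, drug for 72 h over a 256-fold dose range (nine 2-fold or five 4-fold steps up to the top dose). Adherent lines were fixed and stained with the nucleic acid dye Syto60, suspension lines read with resazurin; signal relative to control wells, capped at 0 and 100%. One two-parameter sigmoid per drug and line, fitted in a mixed model over all curves with the slope shared within a line.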

AC220 = compound: CC(C)(C)c1cc(NC(=O)Nc2ccc(-c3cn4c(n3)sc3cc(OCCN5CCOCC5)ccc34)cc2)no1 [AC220]; conditions: top dose 1.024 µM; top dose inferred
Procedure: as §1

RDEA119 = compound: COc1cc(F)c(F)c(Nc2ccc(I)cc2F)c1NS(=O)(=O)C1(C[C@H](O)CO)CC1 [RDEA119]; conditions: top dose 5 µM, top dose inferred
Procedure: as §1

JNK-9L = compound: Fc1cc(-c2ccnc(Nc3ccc(-n4cnc(N5CCOCC5)n4)cc3)n2)cc(N2CCOCC2)c1 [JNK-9L]; conditions: top dose 5.12 µM; top dose inferred
Procedure: as §1

OSU-03012 = compound: NCC(=O)Nc1ccc(-n2nc(C(F)(F)F)cc2-c2ccc3c(ccc4ccccc43)c2)cc1 [OSU-03012]; conditions: top dose 16 µM; top dose inferred
Procedure: as §1

5-Fluorouracil = compound: O=c1[nH]cc(F)c(=O)[nH]1 [5-Fluorouracil]; conditions: top dose 32 µM; top dose inferred
Procedure: as §1

QS11 = compound: OC[C@H](Cc1ccccc1)Nc1nc(Oc2ccc3c(c2)CCC3)nc2c1ncn2Cc1ccc(-c2ccccc2)cc1 [QS11]; conditions: top dose 10.24 µM
Procedure: as §1

Cell Line	AUC (CUDC-101)	IC50 (CUDC-101) [nM]	AUC (AC220)	IC50 (AC220) [nM]	AUC (RDEA119; screen: GDSC drug entry 1014)	IC50 (RDEA119; screen: GDSC drug entry 1014) [nM]	AUC (RDEA119; screen: GDSC drug entry 1526)	IC50 (RDEA119; screen: GDSC drug entry 1526) [nM]	AUC (JNK-9L)	IC50 (JNK-9L) [nM]	AUC (OSU-03012)	IC50 (OSU-03012) [nM]	AUC (5-Fluorouracil)	IC50 (5-Fluorouracil) [nM]	AUC (QS11)	IC50 (QS11) [nM]
SU-DHL-6 (B-cell lymphoma, suspension)	0.175	49.1	0.968	> 1020	0.976	> 5000	0.994	> 5000	0.512	342	0.642	2220	0.737	7610	0.864	5390
SU-DHL-8 (B-cell lymphoma, suspension)	0.124	22.8	0.971	> 1020	0.986	> 5000	0.969	> 5000	0.457	246	0.557	1420	0.8	14300	0.57	982
SU-DHL-16 (B-cell lymphoma, suspension)	0.01	< 20	0.996	> 1020	0.996	> 5000	0.996	> 5000	0.557	438	0.701	3080	0.727	7120	0.91	7280
SUIT-2 (pancreas, adherent)	0.627	732	0.986	> 1020	0.449	225	0.606	619	0.637	780	0.659	2840	0.633	4750	0.876	> 10200
SUP-HD1 (Hodgkin lymphoma, suspension)	0.42	196	0.945	> 1020	0.966	> 5000	0.985	> 5000	0.549	433	0.829	9310	0.556	2820	0.954	> 10200
SUP-M2 (anaplastic large cell lymphoma, suspension)	0.294	99.4	0.989	> 1020	0.991	> 5000	0.738	1220	0.57	475	0.738	3890	0.111	186	0.929	10000
SUP-T1 (T-cell lymphoblastic leukaemia, suspension)	0.288	86.1	0.985	> 1020	0.99	> 5000	0.981	> 5000	0.577	509	0.623	2110	0.695	6660	0.87	8110
SW13 (adrenal gland, adherent)	0.933	> 5120	0.988	> 1020	0.808	2630	0.788	2230	0.651	847	0.765	5940	0.988	> 32000	0.878	> 10200
SW156 (kidney, adherent)	0.927	> 5120	0.983	> 1020	–	–	0.934	> 5000	0.651	883	0.816	10100	0.98	> 32000	0.962	> 10200
SW626 (ovary, adherent)	0.857	> 5120	0.96	> 1020	0.509	333	0.722	1510	0.661	983	0.613	2170	0.8	18900	0.831	8240
SW684 (fibrosarcoma, adherent)	0.963	> 5120	0.977	> 1020	0.835	> 5000	0.859	> 5000	0.764	2730	0.982	> 16000	0.982	> 32000	0.725	3800
SW756 (cervix, adherent)	0.775	2430	0.984	> 1020	0.707	1350	0.763	2140	0.727	1630	0.713	4540	0.933	> 32000	0.903	> 10200
SW780 (bladder, adherent)	0.931	> 5120	0.986	> 1020	0.646	824	0.748	1730	0.599	613	0.986	> 16000	0.976	> 32000	0.986	> 10200
SW837 (large intestine, adherent)	0.417	177	0.98	> 1020	–	–	0.71	1500	0.805	3620	0.702	4490	0.866	> 32000	0.895	> 10200
SW872 (soft tissue, adherent)	0.788	2020	0.989	> 1020	–	–	0.629	681	0.572	493	0.665	2730	0.964	> 32000	0.86	7280
SW900 (lung squamous cell carcinoma, adherent)	0.731	1640	0.984	> 1020	0.985	> 5000	0.778	2380	0.706	1360	0.698	3990	0.87	> 32000	0.984	> 10200
SW948 (large intestine, adherent)	0.77	2920	0.98	> 1020	0.831	> 5000	0.909	> 5000	0.687	1380	0.892	> 16000	0.684	8360	0.977	> 10200
